The record followed here is PubChem BioAssay (EPA / NIEHS).

As a reminder, the AC50 is the concentration at which the activity in the assay is half-maximal.

SMILES strings stand for the structures. For part of these data: Most of the hits are listed elsewhere, so they are rarer here than in the full data. Inconclusive results are not listed. This is a selection; strong and weak results do not stand in their true shares. Some structures have more than one record in an assay (separate samples or runs), and their calls can disagree. Active and inactive are the calls of the source. Rule for the calls, unless noted: active = hit-call score of the fitted dose curve at least 0.9, where 1 is the maximum; inactive = score below 0.9.

Experiment [1] addresses Peroxisome proliferator-activated receptor gamma (Homo sapiens) (UniProt P37231). Briefly: ATG_PPARg_TRANS: Attagene TRANS-FACTORIAL HepG2 Assay for human Peroxisome Proliferator-activated Receptor-gamma (PPARg) (AID 2283007; active = hit-call score of the fitted dose curve at least 0.9, where 1 is the maximum). The method in brief: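 After 24 h of chemical exposure, transfected HepG2 cells carrying PPARγ-Gal4 chimera reporter constructs are lysed for RNA. Reporter transcripts are measured by RT-PCR and capillary electrophoresis with fluorescent labelling, and gain of signal is fitted versus DMSO.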

Experiment [2] addresses Retinoic acid receptor RXR-alpha (Homo sapiens) (UniProt P19793). Nature of the experiment: ATG_RXRa_TRANS: Attagene TRANS-FACTORIAL HepG2 Assay for human Retinoid X Receptor alpha (RXRa) (AID 2283012; active = hit-call score of the fitted dose curve at least 0.9, where 1 is the maximum). The method in brief:
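Measures exogenous chimeric NR-GAL4 activity in transfected HepG2 liver cells after 24 h of dosing. Induced reporter mRNA was detected by RT-PCR with capillary electrophoresis, and gain of signal was analysed against DMSO.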

Read-out in experiment [3]: Interleukin-8 (IL8), CXCL8 (gene 3576)
Briefly: BSK_CASM3C_IL8: BioMAP Diversity Plus: CASM3C Assay for Interleukin-8 (IL8) Biomarker Activity (AID 2283042).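 Note: IL-8 protein level quantified by ELISA.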 The conditions noted are these: actives raise or lower the signal; primary human coronary artery smooth muscle cells.

Experiment [4] can be described thus: BSK_CASM3C_Proliferation: Cell Proliferation Assessment in the BioMAP Diversity Plus: CASM3C Assay (AID 2283047).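 Note: sulforhodamine B total protein stain as relative cell number at 560 nm; sub-confluent cells exposed 48 h before staining; fitted both ways against DMSO so gain or loss of cell number.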 As to conditions: primary human coronary artery smooth muscle cells.
A short description of experiment [5]: ATG_XTT_Cytotoxicity: Cytotoxicity Assessment in the Attagene TRANS-FACTORIAL HepG2 Assay (AID 2283584; active = hit-call score of the fitted dose curve at least 0.9, where 1 is the maximum). The procedure, abridged: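 Transfect HepG2 with GAL4-UAS reporter units, dose compound, incubate 24 h, then measure viable cell number by XTT. Fit concentration response against DMSO baseline.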
For experiment [6], the target named is human Retinoic Acid Receptor gamma (RARg), RARG (gene 5916) (UniProt P13631). Briefly: ATG_RARg_TRANS: Attagene TRANS-FACTORIAL HepG2 Assay for human Retinoic Acid Receptor gamma (RARg) (AID 2283009; active = hit-call score of the fitted dose curve at least 0.9, where 1 is the maximum). The procedure, abridged: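 TRANS format measured activity of exogenous NR-GAL4 fusion (RARg) in transfected HepG2 liver cells after 24 h dosing. Induced reporter RNA was detected by RT-PCR/capillary electrophoresis fluorescence, analysed in the positive direction against DMSO.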

The target of experiment [7] is Estrogen receptor (Homo sapiens) (UniProt P03372). Briefly: NVS_NR_hER: NovaScreen (NVS) Nuclear Receptor Binding Assay for human Estrogen Receptor (ER) (AID 2283348; active = hit-call score of the fitted dose curve at least 0.9, where 1 is the maximum). The method in brief: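 MCF7-derived receptor extract, radiolabelled ligand, competitive displacement. Read: scintillation counts at 18 h. DMSO = negative control/baseline. Primary 25 uM duplicate; follow-up concentration–response.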

For experiment [8] the target is unchanged. Nature of the experiment: OT_ERa_GFPERaERE_0120: Odyssey Thera (OT) 2-hour HeLa Transcription Induction Assay for Estrogen Receptor (AID 2283382; active = hit-call score of the fitted dose curve at least 0.9, where 1 is the maximum). The method in brief:
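Cells (human cervical HeLa) receive compound, incubate 2 hours, then are imaged for fluorescent reporter induction. Images are quantified by high content analysis, and activity is fitted as gain of signal against DMSO.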

Experiment [9] is described as follows: TOX21_p53_BLA_p2_viability: Viability Assessment in the Tox21 HCT-116 p53 Agonism Beta-lactamase Assay, Phase 2 (AID 2283591; active = hit-call score of the fitted dose curve at least 0.9, where 1 is the maximum;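 note: compound exposure lasted 16 h at 37 °C; actives lower the ATP signal meaning cytotoxicity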). The method in brief: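 HCT116 p53-bla cells, 4000/well, dosed after 5 h plating (217-fold dilution of DMSO stocks) and incubated 16 h at 37C. Viability taken as cellular ATP by CellTiter-Glo luminescence after 30 min RT; signal loss marks cytotoxicity.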

Experiment [10] concerns the target human Retinoid X Receptor beta (RXRb), RXRB (gene 6257) (UniProt P28702). Briefly: ATG_RXRb_TRANS: Attagene TRANS-FACTORIAL HepG2 Assay for human Retinoid X Receptor beta (RXRb) (AID 2283013; active = hit-call score of the fitted dose curve at least 0.9, where 1 is the maximum). The procedure, abridged: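 Chimeric receptor-Gal4 activity was assessed in transiently transfected human HepG2 cells after 24 h exposure. Transcripts from GAL4-UAS reporters were quantified by fluorescent RT-PCR and capillary electrophoresis, with DMSO as negative control and baseline.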

Read-out in experiment [11]: Interleukin-1 alpha (IL1a), IL1A (gene 3552)
Briefly: BSK_KF3CT_IL1a: BioMAP Diversity Plus: KF3CT Assay for Interleukin-1 alpha (IL1a) Biomarker Activity (AID 2283070). The conditions noted are these: actives raise or lower the signal; primary human keratinocytes with fibroblasts. The procedure, abridged: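 Primary skin co-culture (keratinocytes, foreskin fibroblasts), 24 h exposure; ELISA for IL-1a; bidirectional curve fit vs DMSO.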

Experiment [12] has as its target Bile acid receptor (Homo sapiens) (UniProt Q96RI1). Nature of the experiment: OT_FXR_FXRSRC1_0480: Odyssey Thera (OT) 8-hour HEK293T Protein-Complementation Assay for Farnesoid X receptor/SRC-1 Co-activator (AID 2283383; active = hit-call score of the fitted dose curve at least 0.9, where 1 is the maximum). The method in brief:
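PCA, HEK293T, 8 h compound exposure; FXR–SRC-1 binding reconstitutes split reporter; fluorescence intensity; positive-direction fit vs DMSO.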

The nature of experiment [13]: CEETOX_H295R_ESTRADIOL: CeeTox H295R High-throughput Steroidogenesis Assay for Estradiol (AID 2283440).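 Note: estradiol secreted into medium quantified by LC-MS/MS after dansyl derivatisation.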 As to conditions: actives raise or lower the signal. The procedure, abridged:
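Following OECD 456 with minor changes, H295R cells received 10 uM forskolin for 48 h and then test chemical for 48 h. Hormone output was read by HPLC-MS/MS, with cytotoxic concentrations diluted until MTT viability reached ≥70%.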

Experiment [14] can be described thus: CEETOX_H295R_PROG: CeeTox H295R High-throughput Steroidogenesis Assay for Progesterone (PROG) (AID 2283442).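 Note: human H295R adrenal cells primed with 10 µM forskolin before dosing; progesterone secreted into medium by H295R cells measured by HPLC-MS/MS.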 The conditions noted are these: actives raise or lower the signal. The method in brief: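 Adrenal H295R line, forskolin-stimulated (10 uM, 48 h) before dosing. 48 h exposure, 0.1% DMSO vehicle. Secreted progesterone by reverse-phase HPLC with ESI+ MS/MS quantification; DMSO-normalised bidirectional curve fit.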

Read-out in experiment [15]: DNA damage-inducible transcript 3 (DDIT3), DDIT3 (gene 1649)
Nature of the experiment: LTEA_HepaRG_DDIT3: Life Technologies and Expression Analysis (LTEA) Assay for DNA damage-inducible transcript 3 (DDIT3) using HepaRG (AID 2283488). As to conditions: actives raise or lower the signal; mRNA level, 48 h. The method in brief:
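Cells are human HepaRG liver cells treated for 48 h with eight half-log concentrations up to 100 uM in 0.5% DMSO. Transcript levels come from qRT-PCR normalized to three housekeeping genes, with activity fitted in both directions relative to vehicle.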

Experiment [16] in a line: TOX21_p53_BLA_p3_viability: Viability Assessment in the Tox21 HCT-116 p53 Agonism Beta-lactamase Assay, Phase 3 (AID 2283593; active = hit-call score of the fitted dose curve at least 0.9, where 1 is the maximum;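 note: cells exposed to compound for 16 h before reading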). The method in brief:
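HCT116 cells, 4000/well, dosed 5 h after plating by pin transfer (217-fold dilution from DMSO stock) and incubated 16 h at 37C, 5% CO2. Viability read as ATP luminescence with CellTiter-Glo after 30 min at room temperature.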

Experiment [17] is described as follows: Tanguay_ZF_120hpf_PFIN_legacy: (Legacy) Oregon State University Tanguay Lab 120 Hour Post-fertilization zebrafish Assay for Pectoral Fin Malformation (AID 2283648; active = hit-call score of the fitted dose curve at least 0.9, where 1 is the maximum;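 note: each larva judged yes or no for fin defect by brightfield with dead larvae skipped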). The procedure, abridged:
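Binary pectoral fin malformation call at 120 hpf by brightfield microscopy; 5D wild-type zebrafish, chorion removed at 4 hpf, one embryo per well from 6 hpf, static exposure at 28C; DMSO (0.64% final) as baseline.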

Experiment [18] can be described thus: CCTE_Simmons_MITO_inhib_resp_rate: CCTE's HepG2 Seahorse XF Respirometric Screening Assay at Inhibited Respiratory State [full ETC block], Simmons Lab (AID 2284006). As to conditions: actives raise or lower the signal. The procedure, abridged:
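Seahorse respirometry, HepG2, 72 min total, 6-min mix/measure cycles. Cpd 125 nM–100 uM final ×7, n=3 biological. Sequential FCCP, rotenone/antimycin A; inhibited-respiration OCR, bidirectional fit vs DMSO.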

Read-out in experiment [19]: E-selectin (Homo sapiens) (UniProt P16581)
Nature of the experiment: BSK_3C_Eselectin: BioMAP Diversity Plus: 3C Assay for Eselectin Biomarker Activity (AID 2283015). As to conditions: actives raise or lower the signal; primary human endothelial cells (HUVEC). The method in brief:
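Human vascular endothelium from umbilical vein is exposed to test chemicals for 24 h. E-selectin levels are read by ELISA and compared with DMSO controls.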

Read-out in experiment [20]: Pselectin, SELP (gene 6403)
Briefly: BSK_4H_Pselectin: BioMAP Diversity Plus: 4H Assay for Pselectin Biomarker Activity (AID 2283026). As to conditions: actives raise or lower the signal; primary human endothelial cells (HUVEC). The procedure, abridged:
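Endothelial primary cells (human umbilical vein) are dosed, incubated 24 h, and assayed for surface P-selectin by ELISA; responses in either direction are fitted relative to the DMSO negative control.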

The nature of experiment [21]: BSK_BE3C_SRB: Viability Assessment in the BioMAP Diversity Plus: BE3C Assay (AID 2283028). The conditions noted are these: primary human bronchial epithelial cells. The procedure, abridged:
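Overt cytotoxicity was assessed as total protein in confluent human primary bronchial epithelial cultures 24 h after chemical addition, using 0.1% sulforhodamine B staining read at 560 nm.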

Read-out in experiment [22]: Interleukin-8 (IL8), CXCL8 (gene 3576)
Nature of the experiment: BSK_hDFCGF_IL8: BioMAP Diversity Plus: hDFCGF Assay for Interleukin-8 (IL8) Biomarker Activity (AID 2283058). The conditions noted are these: actives raise or lower the signal; primary human foreskin fibroblasts. The method in brief:
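IL-8 levels from compound-treated primary human fibroblasts were read by ELISA at 24 h, with DMSO serving as baseline for bidirectional fitting.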

Read-out in a further experiment: CD38, CD38 (gene 952)
Briefly: BSK_SAg_CD38: BioMAP Diversity Plus: SAg Assay for CD38 Biomarker Activity (AID 2283087). As to conditions: actives raise or lower the signal; primary human HUVEC with PBMC. The method in brief:
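CD38 quantified by ELISA (fluorescence) in a superantigen-activated endothelial cell–PBMC co-culture at 24 h post-dose. Activity fitted in both directions relative to DMSO; parallel SRB and Alamar Blue cytotoxicity read-outs.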

Read-out in experiment [23]: Interleukin-8 (IL8), CXCL8 (gene 3576)
Nature of the experiment: BSK_MyoF_IL8: BioMAP Diversity Plus: MyoF Assay for Interleukin-8 (IL8) Biomarker Activity (AID 2284261). As to conditions: primary human lung fibroblasts. The method in brief:
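In this multiplexed primary-cell system, fibroblasts from human lung are treated with chemicals, and IL-8 is detected by ELISA at 24 h, with DMSO serving as the negative reference.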

Experiment [24] is described as follows: BSK_MyoF_SRB: Viability Assessment in the BioMAP Diversity Plus: MyoF Assay (AID 2284267). As to conditions: primary human lung fibroblasts. The procedure, abridged: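 Confluent human lung fibroblasts were exposed to test chemicals for 24 h. Parallel wells were then fixed in 10% TCA, stained with 0.1% sulforhodamine B and measured at 560 nm. DMSO served as baseline for curve fitting.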

Read-out in experiment [25]: Human Leukocyte Antigen - DR isotype (HLADR), HLA-DRA (gene 3122)
Briefly: BSK_CASM3C_HLADR: BioMAP Diversity Plus: CASM3C Assay for Human Leukocyte Antigen - DR isotype (HLADR) Biomarker Activity (AID 2283043).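 Note: cell-surface HLA-DR protein level quantified by ELISA.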 The conditions noted are these: actives raise or lower the signal; primary human coronary artery smooth muscle cells.

UniProt P19793, sequence (P19793 whole entry, looked up, the tested form may be a part): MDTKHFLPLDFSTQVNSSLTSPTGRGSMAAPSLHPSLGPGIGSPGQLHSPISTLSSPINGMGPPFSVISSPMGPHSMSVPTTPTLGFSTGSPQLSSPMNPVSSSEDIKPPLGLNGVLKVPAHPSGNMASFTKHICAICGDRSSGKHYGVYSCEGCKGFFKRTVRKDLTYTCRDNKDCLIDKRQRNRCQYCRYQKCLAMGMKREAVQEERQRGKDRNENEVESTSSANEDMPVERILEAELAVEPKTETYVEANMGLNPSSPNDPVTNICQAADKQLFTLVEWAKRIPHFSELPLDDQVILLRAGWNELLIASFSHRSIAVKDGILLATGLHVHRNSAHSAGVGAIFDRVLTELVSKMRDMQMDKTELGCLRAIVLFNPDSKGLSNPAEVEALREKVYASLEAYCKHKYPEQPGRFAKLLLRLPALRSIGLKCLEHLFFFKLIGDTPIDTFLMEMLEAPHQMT
UniProt P03372, sequence (P03372 whole entry, looked up): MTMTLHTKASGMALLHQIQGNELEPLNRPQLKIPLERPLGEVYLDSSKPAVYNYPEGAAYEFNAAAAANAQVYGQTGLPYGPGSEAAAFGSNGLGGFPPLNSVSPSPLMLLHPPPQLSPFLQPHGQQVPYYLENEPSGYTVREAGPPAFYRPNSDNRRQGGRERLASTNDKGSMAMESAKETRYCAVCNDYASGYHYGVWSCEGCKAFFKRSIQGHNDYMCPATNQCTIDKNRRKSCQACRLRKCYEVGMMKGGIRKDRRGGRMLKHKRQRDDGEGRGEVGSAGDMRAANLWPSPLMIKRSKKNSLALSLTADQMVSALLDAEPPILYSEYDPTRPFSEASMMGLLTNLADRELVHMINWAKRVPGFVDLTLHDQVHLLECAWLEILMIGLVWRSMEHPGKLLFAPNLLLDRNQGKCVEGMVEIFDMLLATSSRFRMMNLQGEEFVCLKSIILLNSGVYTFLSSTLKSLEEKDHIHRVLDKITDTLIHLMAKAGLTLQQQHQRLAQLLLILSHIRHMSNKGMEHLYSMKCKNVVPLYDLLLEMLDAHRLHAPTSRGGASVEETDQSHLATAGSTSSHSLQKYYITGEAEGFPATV
UniProt P28702, sequence (P28702 whole entry, looked up, the tested form may be a part): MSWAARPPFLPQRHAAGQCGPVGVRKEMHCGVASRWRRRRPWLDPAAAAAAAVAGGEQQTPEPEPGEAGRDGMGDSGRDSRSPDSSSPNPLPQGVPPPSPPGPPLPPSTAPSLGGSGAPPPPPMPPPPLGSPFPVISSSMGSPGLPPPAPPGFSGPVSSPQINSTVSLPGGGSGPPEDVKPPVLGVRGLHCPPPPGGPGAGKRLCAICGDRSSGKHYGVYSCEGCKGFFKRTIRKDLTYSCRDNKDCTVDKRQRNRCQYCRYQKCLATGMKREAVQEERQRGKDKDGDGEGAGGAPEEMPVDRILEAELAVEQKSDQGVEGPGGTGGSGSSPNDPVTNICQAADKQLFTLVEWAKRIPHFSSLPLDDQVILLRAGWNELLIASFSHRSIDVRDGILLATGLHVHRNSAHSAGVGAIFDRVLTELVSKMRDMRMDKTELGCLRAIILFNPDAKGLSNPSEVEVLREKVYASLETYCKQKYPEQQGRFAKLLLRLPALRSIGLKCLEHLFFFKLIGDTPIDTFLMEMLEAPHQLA
UniProt P16581, sequence (P16581 whole entry, looked up): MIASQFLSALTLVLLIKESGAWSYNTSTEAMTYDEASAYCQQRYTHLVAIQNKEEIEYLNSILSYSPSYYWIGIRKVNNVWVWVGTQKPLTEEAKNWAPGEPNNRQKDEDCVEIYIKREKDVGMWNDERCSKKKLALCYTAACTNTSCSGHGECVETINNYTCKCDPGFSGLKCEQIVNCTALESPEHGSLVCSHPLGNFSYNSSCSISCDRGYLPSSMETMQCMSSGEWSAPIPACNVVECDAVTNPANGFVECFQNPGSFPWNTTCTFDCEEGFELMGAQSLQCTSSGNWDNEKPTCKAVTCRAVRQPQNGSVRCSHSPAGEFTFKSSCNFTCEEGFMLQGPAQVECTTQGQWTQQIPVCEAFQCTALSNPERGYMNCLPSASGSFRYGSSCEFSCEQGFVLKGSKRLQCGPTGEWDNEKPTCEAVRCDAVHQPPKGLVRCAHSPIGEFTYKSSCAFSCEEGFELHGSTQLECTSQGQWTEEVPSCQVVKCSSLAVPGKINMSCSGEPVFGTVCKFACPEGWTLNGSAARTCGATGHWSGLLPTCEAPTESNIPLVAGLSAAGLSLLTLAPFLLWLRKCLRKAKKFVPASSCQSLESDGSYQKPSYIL
UniProt P37231, sequence (P37231 whole entry, looked up, the tested form may be a part): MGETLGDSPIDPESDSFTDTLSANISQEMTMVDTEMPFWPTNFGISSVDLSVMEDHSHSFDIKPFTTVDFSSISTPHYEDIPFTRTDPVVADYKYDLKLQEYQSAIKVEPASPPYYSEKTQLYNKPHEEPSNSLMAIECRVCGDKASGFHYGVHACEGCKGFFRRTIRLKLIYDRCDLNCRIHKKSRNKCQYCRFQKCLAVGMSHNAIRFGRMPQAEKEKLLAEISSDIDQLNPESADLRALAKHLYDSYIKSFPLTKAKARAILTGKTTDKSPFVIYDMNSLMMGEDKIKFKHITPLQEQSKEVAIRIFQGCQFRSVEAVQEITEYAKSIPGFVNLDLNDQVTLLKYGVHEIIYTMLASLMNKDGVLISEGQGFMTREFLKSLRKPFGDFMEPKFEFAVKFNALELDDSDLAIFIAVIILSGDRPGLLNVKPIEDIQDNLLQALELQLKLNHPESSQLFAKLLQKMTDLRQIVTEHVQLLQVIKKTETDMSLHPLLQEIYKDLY
UniProt Q96RI1, sequence (Q96RI1 whole entry, looked up): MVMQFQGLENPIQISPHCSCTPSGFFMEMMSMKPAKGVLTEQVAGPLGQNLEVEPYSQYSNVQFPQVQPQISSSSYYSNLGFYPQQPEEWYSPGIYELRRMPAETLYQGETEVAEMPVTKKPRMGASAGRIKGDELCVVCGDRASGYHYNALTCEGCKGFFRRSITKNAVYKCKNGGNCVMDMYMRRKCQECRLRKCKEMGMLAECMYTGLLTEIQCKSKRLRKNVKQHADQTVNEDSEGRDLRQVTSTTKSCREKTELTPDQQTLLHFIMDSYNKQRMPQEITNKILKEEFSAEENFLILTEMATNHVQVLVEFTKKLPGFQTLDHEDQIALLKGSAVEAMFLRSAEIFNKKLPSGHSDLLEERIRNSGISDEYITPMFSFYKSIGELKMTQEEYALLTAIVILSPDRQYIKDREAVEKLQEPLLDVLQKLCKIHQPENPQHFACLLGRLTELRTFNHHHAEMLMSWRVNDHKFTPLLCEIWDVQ
human Retinoic Acid Receptor gamma (RARg), RARG (gene 5916), sequence (P13631 whole entry, looked up, the tested form may be a part): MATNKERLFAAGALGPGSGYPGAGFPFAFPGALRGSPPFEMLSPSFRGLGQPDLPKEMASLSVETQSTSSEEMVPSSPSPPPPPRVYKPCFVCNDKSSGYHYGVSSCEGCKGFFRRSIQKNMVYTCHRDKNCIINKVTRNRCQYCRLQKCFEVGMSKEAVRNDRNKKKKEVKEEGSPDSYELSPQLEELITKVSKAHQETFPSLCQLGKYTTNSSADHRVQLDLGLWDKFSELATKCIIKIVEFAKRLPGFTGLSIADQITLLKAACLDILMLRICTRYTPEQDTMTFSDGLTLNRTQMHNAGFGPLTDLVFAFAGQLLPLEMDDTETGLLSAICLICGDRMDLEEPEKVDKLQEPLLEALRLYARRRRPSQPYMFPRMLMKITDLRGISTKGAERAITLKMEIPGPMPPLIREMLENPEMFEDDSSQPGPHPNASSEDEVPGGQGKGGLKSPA

For the molecule `CC(C)(C)c1ccc(O)c(O)c1`, the AC50 was active: 58.9 µM in experiment [1] and active: 31.3 µM in experiment [4]. Besides, the result in [2], in [3] and in [5] was inactive.

`OC[C@@H](O)[C@@H](O)[C@H](O)[C@@H](O)CO`: the molecule was called inactive in experiment [6], in [7], in [8] and in [9].

On to `C[C@]12C[C@H](O)[C@H]3[C@@H](CCC4=CC(=O)CC[C@@]43C)[C@@H]1CC[C@@H]2C(=O)CO`, for which the molecule was classed as inactive in [2], in experiment [10], in experiment [11], in experiment [8], in [12] and in [13]. In addition, the molecule was classed as inactive in experiment [15], in [16], in experiment [17] and in experiment [18]. Also, the AC50 in experiment [14] is active: 50 µM.

For `O=C(c1ccccc1)c1ccc(O)cc1O`, in [2], the molecule was called inactive.

Regarding `COCc1c(C(C)C)nc(C(C)C)c(/C=C/[C@@H](O)C[C@@H](O)CC(=O)O)c1-c1ccc(F)cc1`, the AC50 in experiment [19] is active: 1.83 µM; in experiment [20], active: 1.83 µM; in the experiment with CD38, CD38 (gene 952) it was active: 1.83 µM; in experiment [23], active: 0.00777 µM; in experiment [24] it was active: 0.0766 µM. Besides, the outcome in [21] and in experiment [22] was inactive.

Consider `CC(=O)C1(C)CC2=C(CCCC2(C)C)CC1C` (stereo not given), for which the AC50 in experiment [19] is active: 10.1 µM; in experiment [25], active: 12.4 µM.
